The values that follow come from PMC4336329 (PLoS ONE, 2015).

Out of some 310,000 compounds screened, about 14,000 (4.5%) showed an effect of 50% or more. Effects have a minus sign here. The list shows a part of the results.
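Also: peak tail current of the secondary pulse compared with the same well before compound.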

The target of the experiment is human ether-à-go-go-related gene (hERG) potassium channel (human, UniProt Q12809). Put plainly: primary screen, population patch clamp on CHO cells stably expressing hERG.
human ether-à-go-go-related gene (hERG) potassium channel, sequence (Q12809 whole entry, looked up): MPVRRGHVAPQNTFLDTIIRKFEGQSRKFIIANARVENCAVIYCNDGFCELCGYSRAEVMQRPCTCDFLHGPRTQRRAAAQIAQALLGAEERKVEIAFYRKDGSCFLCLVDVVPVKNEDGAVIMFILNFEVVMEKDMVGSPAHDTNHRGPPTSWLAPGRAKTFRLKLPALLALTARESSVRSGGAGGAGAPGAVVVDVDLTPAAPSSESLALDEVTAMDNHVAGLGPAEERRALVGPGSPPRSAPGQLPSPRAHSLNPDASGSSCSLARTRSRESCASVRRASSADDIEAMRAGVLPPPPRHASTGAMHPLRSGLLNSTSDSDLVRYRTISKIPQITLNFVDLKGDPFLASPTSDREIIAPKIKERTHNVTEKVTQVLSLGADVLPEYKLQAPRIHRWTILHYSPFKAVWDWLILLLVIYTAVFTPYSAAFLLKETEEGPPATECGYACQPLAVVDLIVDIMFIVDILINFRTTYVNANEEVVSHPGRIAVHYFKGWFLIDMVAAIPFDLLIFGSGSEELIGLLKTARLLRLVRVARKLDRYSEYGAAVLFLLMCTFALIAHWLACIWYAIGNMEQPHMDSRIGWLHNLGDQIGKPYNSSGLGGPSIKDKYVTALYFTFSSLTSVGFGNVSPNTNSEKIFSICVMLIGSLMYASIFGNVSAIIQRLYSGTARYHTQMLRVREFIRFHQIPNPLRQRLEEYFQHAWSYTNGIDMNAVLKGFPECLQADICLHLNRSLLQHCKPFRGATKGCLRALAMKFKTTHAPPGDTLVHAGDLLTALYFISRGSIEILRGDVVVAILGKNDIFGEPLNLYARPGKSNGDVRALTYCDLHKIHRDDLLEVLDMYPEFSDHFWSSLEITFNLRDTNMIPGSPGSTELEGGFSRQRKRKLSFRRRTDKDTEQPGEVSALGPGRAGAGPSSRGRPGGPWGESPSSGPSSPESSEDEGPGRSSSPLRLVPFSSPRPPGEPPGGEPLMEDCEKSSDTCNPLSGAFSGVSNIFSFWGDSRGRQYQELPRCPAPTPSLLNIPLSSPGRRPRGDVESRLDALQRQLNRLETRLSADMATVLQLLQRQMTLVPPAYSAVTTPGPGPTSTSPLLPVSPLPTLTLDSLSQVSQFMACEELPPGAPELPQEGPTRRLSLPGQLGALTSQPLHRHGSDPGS
Turning to `Cc1oc2c(C)c3oc(=O)c(CCC(=O)N4CCC(C(=O)NCCC(=O)O)(c5ccccc5)CC4)c(C)c3cc2c1C`, the “hERG current change (%, negative = inhibition) at 10uM” value is 8.02%.
In the case of `Cc1ccc(C(=O)NCCc2ccccc2)cc1S(=O)(=O)N1CCOCC1` it was -23.4%.
Under `CC(C)[C@H](NC(=O)N1CCn2c1nc1ccccc12)C(=O)NC1CCCCC1` stands -11.3%.
Under `N#Cc1cccc(CN2CCC(=O)N([C@H](CO)c3ccccc3)CC2)c1` stands -4.9%; under `Cc1ccc(CNC(=O)C(c2ccccc2)c2ccccc2)cc1`, -64%.
Turning to `O=C(N/N=C/c1cn(-c2ccccc2)nc1-c1cc2ccccc2o1)c1ccccc1Br`, the “hERG current change (%, negative = inhibition) at 10uM” value is listed as -0.551%.
Under `O=C(NNC(=O)C1CCC1)c1ccc(Cl)cc1` stands 6.19%; under `COc1ccc(CNC(=O)C2CCN(S(=O)(=O)c3c(C)noc3/C=C/N(C)C)CC2)cc1`, -17.4%.
For the molecule `CC1CCCCC1NC(=O)CO/N=C/c1ccc(OC(F)F)cc1` (stereo not drawn), the “hERG current change (%, negative = inhibition) at 10uM” value is -43.7%.
For `O=C(NCc1ccccc1Cl)C1CCCN(S(=O)(=O)c2cnc[nH]2)C1` (stereo not drawn), the “hERG current change (%, negative = inhibition) at 10uM” value worked out at 9.11%.
In the case of `CN(C)S(=O)(=O)c1ccc(NC(=O)CCNC(=O)c2ccc([N+](=O)[O-])cc2)cc1` it was -12.7%.
Under `Cc1ccc(OCC(O)CN2CCN(c3ccccc3)CC2)cc1` (stereo not drawn) stands -38.6%; under `COc1cccc2cc(-c3nc4ccccc4[nH]3)c(=O)oc12`, 22.6%; under `O=C(c1[nH]ncc1-c1cccc(Br)c1)C1CO1` (stereo not drawn), 3.39%.
In the case of `COC(C(=O)NNC(=O)CCc1ccccc1)c1ccccc1` (stereo not drawn) it was 24.1%; in that of `CN(CC(=O)Nc1ccc(Cl)cc1)C(=O)CNC(=O)c1cccs1`, -11.5%; in that of `Cc1cccc(OCCn2nc(C(=O)O)c3ccccc3c2=O)c1`, -40.2%.
For `[NH-]S(=O)(=O)c1ccccc1.[Na+]`, the “hERG current change (%, negative = inhibition) at 10uM” value was 4.93%.
Consider `O=C(O)c1ccc2c(c1)C(=O)N(C(Cc1ccccc1)C(=O)O)C2=O` (stereo not drawn), for which the “hERG current change (%, negative = inhibition) at 10uM” value is -4.08%.
In the case of `Cc1ccc([N+](=O)[O-])c2c1C(N1CC(C)OC(C)C1)C(C)(C)O2` (stereo not drawn) it was 7.7%; in that of `Cc1nc2ccc(S(=O)(=O)NCC(=O)N(C)Cc3ccco3)cc2s1`, -7.68%.
In the case of `CC(=O)N(c1cccc(C(F)(F)F)c1)c1nc(/C=C/C(=O)O)cs1` it was 3.07%.
Under `COc1ccc(C(=O)NCCc2cccc(Cl)c2)cc1OC1CCN(C(C)=O)CC1` stands -16.1%; under `CSc1nc2ccccc2c(=O)n1C1CCOC(C)(C)C1` (stereo not drawn), -4.02%.
